For the test, the system named is R. sanguineus, D. variablis, A. americanum, and I. scapularis. Briefly: R. sanguineus, D. variablis, A. americanum, and I. scapularis residual adult contact assay. The conditions noted are these: versus fluralaner, afoxolaner, (+/−)sarolaner; several tick species. The source says: R. sanguineus, D. variablis, A. americanum, and I. scapularis Residual Adult Contact Assay

As for `O=C(CC(F)(F)F)N1CC2(C1)OCc1cc(C3=NSC(c4cc(Cl)c(F)c(Cl)c4)(C(F)(F)F)C3)ccc12` (stereo not shown) [Compound 1, 1-[6-[5-(3,5-dichloro-4-fluoro-phenyl)-5-(trifluoromethyl)-4H-isothiazol-3-yl]spiro[1H-isobenzofuran-3,3′-azetidine]-1′-yl]-3,3,3-trifluoro-propan-1-one], the “tick potency by contact relative to commercially available standards” value was “superior potency by contact”.

For the origin of these results see patent US9420793B2, “Antiparasitic compounds” (Avista Pharma Solutions, priority 2015, dated 2016).
